# From the supplement of paper PMC6531468
# Some of the results follow. Values come from read counts of a selection and are noisy. Each score is taken over the longer molecules that contain the sequence shown.
# System: IMP3 KH1-4
# Assay: 6-mer SELEX enrichment z-score vs GST control; IMP3 is the RNA-binding protein IGF2BP3; higher = more enriched by binding
# Details: construct: KH1-4 (164-579); SELEX round: R4
# Procedure: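 SELEX-seq with GST-tagged IMP3 KH1-4 (Pro164-Lys579) and an N40 RNA pool, round 4. 6-mer z-score of sequence-tag enrichment normalised to the corresponding GST SELEX round; RNA k-mers written as DNA (T for U).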
# Chain of IMP3 KH1-4 (chain, as listed by the source): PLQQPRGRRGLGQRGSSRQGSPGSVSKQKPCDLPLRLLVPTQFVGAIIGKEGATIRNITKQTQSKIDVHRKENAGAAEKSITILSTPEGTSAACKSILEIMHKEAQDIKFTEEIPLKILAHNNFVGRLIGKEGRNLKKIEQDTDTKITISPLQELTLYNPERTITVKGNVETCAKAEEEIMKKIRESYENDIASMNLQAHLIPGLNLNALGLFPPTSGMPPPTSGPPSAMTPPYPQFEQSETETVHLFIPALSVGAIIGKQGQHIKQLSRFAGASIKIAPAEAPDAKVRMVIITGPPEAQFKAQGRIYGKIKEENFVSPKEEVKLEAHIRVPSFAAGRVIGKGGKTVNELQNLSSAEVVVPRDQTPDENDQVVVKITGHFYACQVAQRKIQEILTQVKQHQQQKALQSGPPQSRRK
row,Sequence,6-mer SELEX enrichment z-score
1,GCTTAC,0.132
2,GTGCGA,-0.35
3,CGAAGA,-0.824
4,CACAAA,0.65
5,TATACA,2.16
6,ACAATT,1.63
7,CGGGCA,-0.269
8,TCTAGC,-0.542
9,GCCTTG,-0.73
10,TACTGC,0.33
11,AGTGAA,0.026
12,GTTTCA,-0.261
13,ACCCCT,-0.5
14,TGCTAT,0.407
15,TCGCAA,0.167
16,TTAGGG,0.371
17,TGGGTT,0.162
18,CGCAGC,-0.614
19,TCTTAA,0.12
20,AATCGA,-1.72

row,Sequence,6-mer SELEX enrichment z-score
1,GGTCTG,0.071
2,CCGGAC,-0.732
3,ATACCG,-0.01
4,AAGATA,1.2
5,CCTAAG,-0.976
6,GCTATG,0.067
7,TTTTAT,1.17
8,AATAGG,1.06
9,ACAAAC,-0.042
10,AAAAGG,-0.48
11,CTCACT,0.301
12,ATTTCG,0.077
13,ATACAA,2.31
14,GTATTC,-0.352
15,ACCCTC,-0.87
16,CATTAA,1.48
17,GCACTC,-0.343
18,TGAACT,0.283
19,AGTTCA,0.262
20,TTTCCT,0.964

# Biological target: IMP3 full-length (UniProt O00425)
# Assay: as above
# Details: construct: FL IMP3 (1-579); SELEX round: R4
# Procedure: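 SELEX-seq with GST-tagged full-length IMP3 and an N40 RNA pool, round 4. Each 6-mer is scored as an enrichment z-score of sequence tags containing it, normalised to the matching GST SELEX round. RNA written as DNA (T = U).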
# Chain of UniProt O00425 (O00425 whole entry): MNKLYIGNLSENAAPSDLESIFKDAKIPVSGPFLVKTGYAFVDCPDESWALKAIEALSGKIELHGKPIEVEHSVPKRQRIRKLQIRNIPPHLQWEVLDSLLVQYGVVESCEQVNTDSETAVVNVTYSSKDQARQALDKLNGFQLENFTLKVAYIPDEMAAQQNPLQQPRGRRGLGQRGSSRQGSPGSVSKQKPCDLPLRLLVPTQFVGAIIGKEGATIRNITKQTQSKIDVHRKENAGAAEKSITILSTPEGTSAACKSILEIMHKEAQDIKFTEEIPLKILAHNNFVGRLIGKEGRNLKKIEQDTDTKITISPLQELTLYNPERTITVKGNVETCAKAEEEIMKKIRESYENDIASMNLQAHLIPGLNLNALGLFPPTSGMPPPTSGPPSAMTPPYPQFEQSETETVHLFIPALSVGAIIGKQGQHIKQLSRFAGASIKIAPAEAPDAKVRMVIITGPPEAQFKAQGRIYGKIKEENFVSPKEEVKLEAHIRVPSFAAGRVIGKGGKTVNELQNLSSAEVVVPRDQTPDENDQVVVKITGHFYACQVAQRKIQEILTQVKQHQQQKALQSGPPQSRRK
row,Sequence,6-mer SELEX enrichment z-score
1,GCTTAC,0.118
2,GTGCGA,-0.145
3,CGAAGA,-1.15
4,CACAAA,0.85
5,TATACA,0.772
6,ACAATT,0.687
7,CGGGCA,1.44
8,TCTAGC,-0.333
9,GCCTTG,-0.383
10,TACTGC,-0.085
11,AGTGAA,-0.681
12,GTTTCA,0.248
13,ACCCCT,-0.821
14,TGCTAT,0.032
15,TCGCAA,0.138
16,TTAGGG,0.229
17,TGGGTT,0.251
18,CGCAGC,0.371
19,TCTTAA,-0.124
20,AATCGA,-1.33

row,Sequence,6-mer SELEX enrichment z-score
1,GGTCTG,0.246
2,CCGGAC,-0.506
3,ATACCG,-0.146
4,AAGATA,-0.492
5,CCTAAG,-1.04
6,GCTATG,-0.063
7,TTTTAT,0.395
8,AATAGG,0.243
9,ACAAAC,0.327
10,AAAAGG,-1.32
11,CTCACT,0.287
12,ATTTCG,0.025
13,ATACAA,1.53
14,GTATTC,-0.2
15,ACCCTC,-0.844
16,CATTAA,0.912
17,GCACTC,0.41
18,TGAACT,-0.589
19,AGTTCA,0.603
20,TTTCCT,0.077
